Experimental findings from PubChem BioAssay AID360 (National Center for Advancing Translational Sciences (NCATS), 2006) are described below.

The campaign covered roughly 48,000 compounds. About 550 (1.1%) were called active. Roughly 4% stayed inconclusive and do not appear here. Rule as the data show it: active = potency below about 15 µM; inconclusive = mostly about 16 µM to 33 µM; inactive = weaker than that. The list shows a part of the results.
Potency is read from the fitted curve at half-maximal effect.

UniProt P04062, sequence (P04062 whole entry, looked up): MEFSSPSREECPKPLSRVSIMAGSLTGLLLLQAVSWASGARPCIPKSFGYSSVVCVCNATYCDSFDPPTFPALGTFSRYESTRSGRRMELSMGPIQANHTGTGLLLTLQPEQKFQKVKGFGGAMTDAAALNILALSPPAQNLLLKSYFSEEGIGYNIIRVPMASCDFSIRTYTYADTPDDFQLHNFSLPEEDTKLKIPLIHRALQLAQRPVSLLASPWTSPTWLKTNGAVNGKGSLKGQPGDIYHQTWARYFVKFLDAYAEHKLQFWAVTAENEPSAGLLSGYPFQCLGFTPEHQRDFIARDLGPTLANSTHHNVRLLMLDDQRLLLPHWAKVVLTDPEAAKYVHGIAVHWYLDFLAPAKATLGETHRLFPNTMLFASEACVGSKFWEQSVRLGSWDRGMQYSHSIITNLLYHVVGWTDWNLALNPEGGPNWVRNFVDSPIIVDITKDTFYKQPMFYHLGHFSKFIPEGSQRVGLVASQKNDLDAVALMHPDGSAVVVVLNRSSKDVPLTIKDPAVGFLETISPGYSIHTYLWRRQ

This assay concerns the target Lysosomal acid glucosylceramidase (Homo sapiens) (UniProt P04062). In words: Glucocerebrosidase.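 Also: the screen sought inhibitors.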 As to conditions: purified enzyme, resorufin glucoside fluorescence (screen aimed at inhibitors), 20 min; series mostly up to 77 µM. The method in brief:
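Wild-type enzyme at 0.2 nM final in 50mM citric acid/KH2PO4, 10mM sodium taurocholate, 0.01% tween-20, pH 5.9, with resorufin beta-D-glucopyranoside at 30 uM final. Compounds titrated, 20 min at RT, red fluorescence read; AC50 from titration.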
For `O=C(NCCc1ccccc1)c1noc2c1CCCCC2`, the Potency is inactive: > 76.9 µM. The same measure for `C=CCn1c(=O)/c(=C/c2ccc(C)o2)s/c1=C(/C#N)C(=O)c1ccccc1`: inactive: > 15.4 µM.

In the case of `CCOC(=O)/C=C1\NC(=O)CS1`, the Potency is inactive: > 76.9 µM.

In the case of `Cc1nc(N)[nH]c(=O)c1CCC(=O)OCC(C)C`, the Potency was inactive: > 76.9 µM. As to `COc1ccc(C(=O)Cn2nnc(-c3cccs3)n2)cc1`, the Potency is inactive: > 76.9 µM. On to `Cc1cc(C(=O)Nc2cc(C)n(Cc3ccc(Cl)cc3)n2)no1`, for which the Potency is inactive: > 76.9 µM. The same measure for `O=C(CN1C(=O)c2ccccc2C1=O)N1CCN(c2ccccn2)CC1`: inactive: > 76.9 µM. For `COCCn1c(C23CC4CC(CC(C4)C2)C3)n[nH]c1=S`, the Potency was inactive: > 76.9 µM.

For `c1ccc(Nc2nc(-c3cccs3)cs2)nc1`, the Potency is inactive: > 76.9 µM. The same measure for `CC(=O)N(c1ccc2oc(=O)sc2c1)S(=O)(=O)c1ccccc1`: inactive: > 76.9 µM; for `CCS(=O)(=O)c1ccc2oc(Nc3ccccc3C)nc2c1`: inactive: > 76.9 µM; for `Cn1cccc1P(=O)(c1cccn1C)c1cccn1C`: inactive: > 76.9 µM. As to `Cc1ccc2c(c1)C(C)(C)[C@]1(C)NC(=O)CCN21`, the Potency is inactive: > 76.9 µM. The same measure for `Cc1nc2ncnn2c(C)c1CCC(=O)NC(C)CCc1ccco1` (centres undefined): inactive: > 76.9 µM; for `Cc1ccc(OCC(=O)N2CCN(C(=O)c3cccs3)CC2)cc1`: inactive: > 76.9 µM; for `CCCn1c(SCC(=O)Nc2ccccc2N2CCCCC2)nc2c1c(=O)n(C)c(=O)n2C`: inactive: > 76.9 µM. As to `c1ccc2c(c1)C(=NCC1CCCO1)NC2=NCC1CCCO1` (centres undefined), the Potency was inactive: > 76.9 µM.

As for `CCN(CC)C(=O)N1c2ccccc2CC(N(CC)CC)c2ccccc21` (centres undefined), the Potency was inactive: > 76.9 µM. The same measure for `COc1ccc(Cc2nc(-c3ccc(NC(=O)c4cccnc4)cc3)no2)cc1`: inactive: > 76.9 µM. Next, `O=C(C1CCN(S(=O)(=O)c2cccc3cccnc23)CC1)N1CCc2ccccc21`: inactive: > 76.9 µM; `O=C(NCc1cccs1)c1cccc(N2CCCC2=O)c1`: inactive: > 76.9 µM; `Cc1ccc(-n2c(Cc3cccn3C)nnc2SCC(N)=O)cc1`: inactive: > 76.9 µM.

For `O=C(CCCSc1nnc(-c2cccs2)n1CC1CCCO1)c1ccccc1` (centres undefined), the Potency was inactive: > 76.9 µM. For the molecule `Cc1ccc(-n2nc(C(=O)NCc3ccco3)c3c4ccccc4n(C)c3c2=O)cc1`, the Potency is inactive: > 76.9 µM. Next, `CC(O)c1cc2c(cc1NC(=O)c1cnn3c1NC(c1ccco1)CC3C(F)(F)F)OCO2` (centres undefined): inactive: > 76.9 µM; `CC1=C(C(=O)OC(C)C)C(c2cccs2)N2C(=O)CCSC2=N1` (centres undefined): inactive: > 76.9 µM. The same measure for `OCCN1CCOCCN(CCO)CCN(CCO)CC1`: inactive: > 76.9 µM; for `COc1cccc(-c2nnc(SCC(=O)Nc3cc(C)on3)o2)c1`: inactive: > 76.9 µM; for `CC(C)(C)OC(=O)N1Cc2ccccc2C[C@H]1C(=O)O`: inactive: > 76.9 µM.

On to `CCc1ccccc1NC1=NCC(=O)N1Cc1ccc2c(c1)OCO2`, for which the Potency was inactive: > 76.9 µM. Turning to `O=C(Nc1ccccc1C(=O)NCc1ccco1)NC1CCCCC1`, the Potency is inactive: > 76.9 µM. The same measure for `O=C(c1cc2nc(-c3ccco3)cc(C(F)(F)F)n2n1)N1CCCc2ccccc21`: inactive: > 76.9 µM. The same measure for `COc1cc(Cl)c(C)cc1NC(=O)CSc1nnc(-c2ccccn2)n1Cc1ccco1`: inactive: > 76.9 µM; for `CCc1nc2c3cnn(-c4cc(Cl)ccc4C)c3ncn2n1`: inactive: > 76.9 µM; for `Cc1ccc(NC(=O)c2ccc3c(c2)N(CC(=O)N2CCCCC2)C(=O)C(C)(C)O3)cc1`: inactive: > 76.9 µM. Next, `CCN(Cc1ccccc1)C(=O)Cn1c(=O)n(CC(=O)NCc2ccco2)c(=O)c2sccc21`: inactive: > 76.9 µM; `CCN(Cc1nc2ccccc2c(=O)[nH]1)Cc1cc(=O)oc2cc(C)c(C)cc12`: inactive: > 76.9 µM.

`CCOc1ccc(NC(N)=O)cc1`: the Potency is inactive: > 76.9 µM. The same measure for `CC(C)C(OC(=O)CN1C(=O)COc2ccccc21)C(=O)NC1CCCC1` (centres undefined): inactive: > 76.9 µM; for `COc1ccccc1-n1nc(C(=O)Nc2ccc3c(c2)OCO3)c2ccccc2c1=O`: inactive: > 76.9 µM. Take `COC(=O)Nc1ccc2c(c1)N(C(=O)CCN1CCN3CCCC3C1)c1ccccc1CC2` (centres undefined): the Potency was inactive: > 76.9 µM. The same measure for `CC(=O)N1CCc2cc(S(=O)(=O)NCCCN3CCN(Cc4ccccc4)CC3)ccc21`: inactive: > 76.9 µM; for `Cc1noc(/C=C/c2ccco2)c1S(=O)(=O)N1CCC(C(=O)NCc2ccco2)CC1`: inactive: > 76.9 µM. The same measure for `CCOC(=O)CSC1=C(C#N)C(C)C2=C(CCCC2=O)N1` (centres undefined): inactive: > 76.9 µM.

Regarding `COC(=O)c1ccc(CSCC(=O)Nc2cc(OC)cc(OC)c2)o1`, the Potency was inactive: > 76.9 µM. The same measure for `Cc1nnc2n(c1=O)C(CS(=O)(=O)c1ccccc1)CS2` (centres undefined): inactive: > 76.9 µM; for `CCOc1ccc(-c2nc(=S)[nH][nH]2)cc1`: inactive: > 76.9 µM. The same measure for `COc1ccc(OC)c(NC(=O)NCc2ccc(F)cc2)c1`: inactive: > 76.9 µM; for `CCOc1cc(C(=O)OCC(=O)c2c(C)[nH]c3ccccc23)ccc1OCC(=O)N1CCOCC1`: inactive: > 76.9 µM; for `COC(=O)CC[C@@H](C(=O)O)N1C(=O)c2ccccc2C1=O`: inactive: > 76.9 µM. Next, `O=C(O)CSc1c2c(nc3cc(C(=O)N4CCOCC4)ccc13)CCCC2`: inactive: > 76.9 µM; `CCC(C)NC(=O)CSc1nnc(-c2ccncc2)n1-c1ccc(OC)cc1` (centres undefined): inactive: > 76.9 µM.

Regarding `CCCCS(=O)(=O)NC1=NCN(CCO)CN1`, the Potency is inactive: > 76.9 µM. Next, `CN(C1CCCCC1)S(=O)(=O)c1ccc(NC(=O)CCC(=O)O)cc1`: inactive: > 76.9 µM; `Cc1cc(C)nc(NS(=O)(=O)c2ccc(Br)cc2)n1`: inactive: > 76.9 µM. Take `CCCS(=O)(=O)N1CCC(C(=O)N2CCc3ccccc3C2)CC1`: the Potency was inactive: > 76.9 µM. Next, `CCOc1ccc(C2C(C(=O)O)c3ccccc3C(=O)N2CCN2CCOCC2)cc1` (centres undefined): inactive: > 76.9 µM; `COC(=O)C1=C(C)NC(=O)CC1c1ccc(F)c(Br)c1` (centres undefined): inactive: > 76.9 µM; `CC(C(=O)Nc1ccccc1-c1ccccc1)N1CCN(C(=O)c2ccco2)CC1` (centres undefined): inactive: > 76.9 µM. Next, `COc1cc(S(=O)(=O)N2CCC(O)(c3cccc(C(F)(F)F)c3)CC2)ccc1-n1cnnn1`: inactive: > 76.9 µM; `CCS(=O)(=O)N1CCC(C(=O)NCCc2ccc(OC)c(OC)c2)CC1`: inactive: > 76.9 µM; `O=C(CN(C(=O)Cn1nnc(-c2cccs2)n1)c1cnc2ccccc2c1)NCC1CCCO1` (centres undefined): inactive: > 76.9 µM. Next, `CC(C)(O)c1nnn(-c2ccccc2)c1C(F)(F)F`: inactive: > 76.9 µM; `O=C(COc1cccc(-n2cnnn2)c1)N1CCOCC1`: inactive: > 76.9 µM; `O=c1oc2cc(Br)ccc2n1CSC1=NCCS1`: inactive: > 76.9 µM. With `CCOC(=O)c1ccc(CNC(=O)c2n[nH]c(=O)c3ccccc23)o1`, the Potency was inactive: > 76.9 µM.

With `COc1ccc(N(CC(=O)Nc2cccc(N(C)S(C)(=O)=O)c2)S(C)(=O)=O)cc1OC`, the Potency was inactive: > 76.9 µM.

Turning to `COC(=O)[C@H](Cc1ccccc1)NC(=O)NCCc1ccc(S(N)(=O)=O)cc1`, the Potency was inactive: > 76.9 µM. Next, `Cc1cccc(OCc2nnc(SCC(=O)c3ccccc3)o2)c1`: inactive: > 76.9 µM; `CS(=O)(=O)N(C(=O)NC(=O)NC1CCS(=O)(=O)C1)C1CCCCC1` (centres undefined): inactive: > 76.9 µM. Next, `CC(C)(C)C1CCc2onc(C(=O)Nc3cccnc3)c2C1` (centres undefined): inactive: > 76.9 µM; `COCCCN=CC1=C(O)CC(C)(C)CC1=O`: inactive: > 76.9 µM; `Cc1cc2n(n1)C(c1ccccc1Cl)Nc1ccccc1-2` (centres undefined): inactive: > 76.9 µM.

`O=C(CN1C(=O)C2C3C=CC(C3)C2C1=O)NC1CCCc2ccccc21` (centres undefined): the Potency is inactive: > 76.9 µM. Next, `O=C(NC1CCCCC1)C(c1ccc(F)cc1)N(Cc1ccco1)C(=O)Cn1nnc2ccccc21` (centres undefined): inactive: > 76.9 µM; `Cc1ccc(C(=O)C2=C(O)C(=O)N(CCCN3CCOCC3)C23C(=O)N(C)c2ccccc23)o1` (centres undefined): inactive: > 76.9 µM. Next, `COc1ccc(C2=NOC(C(=O)NCc3ccco3)C2)cc1OC` (centres undefined): inactive: > 76.9 µM. Turning to `CCOC(=O)CSc1nnc(CNc2nc(-c3ccccc3)cs2)n1C`, the Potency is inactive: > 76.9 µM.

For `COC(=O)c1cccc(N(C(=O)c2cnccn2)C(C(=O)NCc2ccccc2)c2ccco2)c1` (centres undefined), the Potency is inactive: > 76.9 µM. Next, `O=C(CNC(=O)c1ccco1)NCC(=O)OCc1cccc(C(=O)Oc2ccccc2)c1`: inactive: > 76.9 µM. Next, `CC1CN(C(=O)c2ccccc2)OC(c2ccc3c(c2)OCO3)O1` (centres undefined): inactive: > 76.9 µM; `COc1cccc(C2CC(=O)NC3=C2C(=O)CCC3)c1` (centres undefined): inactive: > 76.9 µM. Turning to `Cn1c(=O)cc(SCC(=O)N2CCCC2)c2ccc(Cl)cc21`, the Potency was inactive: > 76.9 µM. The same measure for `Cc1nc2n(n1)CC(O)CS2` (centres undefined): inactive: > 76.9 µM. With `CC(=O)c1cccc(NC(=O)c2ccc(N(C)S(C)(=O)=O)cc2)c1`, the Potency was inactive: > 76.9 µM. The same measure for `CC(c1ccccc1F)n1cc(C(=O)NCc2ccncc2)nn1` (centres undefined): inactive: > 76.9 µM. Next, `Cc1sc2nc(SCC(=O)N(C)C)[nH]c(=O)c2c1C`: inactive: > 76.9 µM. The same measure for `COc1ccc(C2C(C#N)=C(N)OC(C(C)(C)C)=C2C#N)cc1OC` (centres undefined): “inactive”.

With `Cc1cc(N2C(=O)CC(N3CCN(c4ccc(C(=O)c5cccs5)cc4)CC3)C2=O)no1` (centres undefined), the Potency was inactive: > 76.9 µM.
